Each structure is given as a SMILES string. Over roughly 13,000 compounds, “IFI” has its median near 4; the highest 2% begin near 17. The list shows a part of the results.

The test can be described thus: GSK_TCMDC: Inhibition Frequency Index (IFI). The number of non-kinase HTS assays where a compound showed > 50 % inhibition, expressed as a percentage of the number of such assays in which the compound was tested (-0 is zero). The class given is functional.
For the molecule `CC1(C)NC(N)=NC(=N)N1OCCCOc1ccc([N+](=O)[O-])cc1`, the IFI was determined as 2.11%. The same measure for `Cc1cc(-c2cnc(N)c(-c3ccc(N4CCN(C)CC4)nc3)c2)cc(C)c1O`: -0%; for `COc1ccc2nccc([C@@H](O)CN3CCC(NCc4cc5cc(OC(F)(F)F)ccc5[nH]4)CC3)c2c1`: 12.6%.

`Cc1ccc(C(=O)Nc2ccc(F)cc2)cc1-c1nc(NC2CC(C)(C)NC(C)(C)C2)nc2c1ccc(=O)n2-c1c(F)cccc1F` registered an IFI of 10.9%. With `CCOC(=O)/C(=N\OC(C(=O)OC(C)(C)C)c1ccccc1)c1csc(NC(c2ccccc2)(c2ccccc2)c2ccccc2)n1` (configuration not stated) the figure was 0.74%; with `COc1ccc2nccc([C@@H](O)CN3CCC(NCc4cc5c(F)ccc(F)c5[nH]4)CC3)c2n1`, 2.9%.

Turning to `O=C(NC1CCN(Cc2ccccc2O)C1)c1ccc(Cl)c(Cl)c1` (configuration not stated), the IFI came to 2.14%. The molecule `Nc1nc2c(ncn2OC[C@H](CO)OCP(=O)(O)O)c(=O)[nH]1` had an IFI of 1.41%. The same measure for `NCCCNc1nc(Nc2ccc(C(F)(F)F)cc2F)c2c(=O)[nH]ccc2n1`: 9.09%; for `Cc1cccc2nc(-c3ccc(-c4ccc(NC(=O)C(=O)c5cccn5C)cc4)cc3)[nH]c12`: 3.6%; for `CN1CCN(c2cc3c(cc2Br)CCN3C(=O)Nc2ccc(-c3cnc4ccccc4c3)cc2)CC1`: 14.3%. With `CN(C)C(=O)c1ccc(CN(Cc2ccc3c(c2)OCCO3)Cc2ccc3c(c2)OCO3)cc1` the figure was 1.05%. With `COc1cc(C(=O)NC2CCc3ccccc32)cc(Cl)c1OC` (configuration not stated) the figure was 0%. On to `Cc1ccoc1C(=O)Nc1ccc(-c2cccc(-c3nc4cccc(C)c4[nH]3)c2)cc1`, for which the IFI was 5.56%. The same measure for `Cc1nc(N)nc(N)c1OCCCCCCOc1ccccc1`: 2.86%. The same measure for `CC1(CCCCN2CCC(c3c[nH]c4cnccc34)CC2)C(=O)Nc2cccc(Cl)c21` (configuration not stated): 3.52%; for `c1ccc(CNCc2ccc(-c3cccc(-c4nc5ccccc5[nH]4)c3)cc2)cc1`: 9.62%; for `O=C(NCCN1CCCC1)c1cccc(-c2ccc(-c3nc4ccccc4[nH]3)cc2)c1`: 6.31%. With `Cc1csc(NC(=O)c2cn(-c3ccccc3)nc2-c2cccs2)n1` the figure was 4.13%. Take `CC(C)(C)c1ccc(CNCCOc2ccc(Nc3nnc(-c4ccc(-c5ncc[nH]5)cc4)o3)c3ccccc23)cc1`: the IFI was determined as 8.63%.

Consider `COc1ccccc1-n1c(-c2ccc3ccccc3c2)csc1=NC(=O)c1ccccc1`, for which the IFI was found to be 1.35%. The same measure for `CCNC(=O)N[C@@H]1CN[C@@H](C#Cc2cc3c(Nc4ccc(OCc5cccc(F)c5)c(Cl)c4)ncnc3s2)C1`: 0%; for `O=C(Nc1ccc(F)cc1)NC1CCN(c2ccnc3ccccc23)C1` (configuration not stated): -0%; for `O=S(=O)(NCCN1CCCC1)c1cccc(-c2ccc(CNC3Cc4ccccc4C3)cc2)c1`: 11.4%.

Consider `COc1ccc2nccc([C@@H](O)CN3CCC(NC(=O)c4ccc(Cl)c(Cl)c4)CC3)c2c1`, for which the IFI worked out at 4.41%. With `CN1CCC(NCCS(=O)(=O)c2cccc(Nc3ccc(-c4cccc(F)c4)cn3)c2)CC1` the figure was 5.56%; with `COc1ccc(-c2csc3ncnc(Cl)c23)cc1OC`, 3.47%. With `COc1cc(OC)cc(C(=O)Nc2nc(-c3ccccn3)cs2)c1` the figure was 13.8%; with `CCCCNCc1ccc(OCc2cccc(COc3ccc(CNCCCC)cc3)c2)cc1`, 12.9%. With `CS(=O)(=O)Nc1cccc(-c2cnc3[nH]cc(-c4ccc(C(=O)O)cc4)c3c2)c1` the figure was 2.75%; with `CCCCc1nc2nc(N)nc(N)c2cc1CCC`, 1.61%. Turning to `CN(C)CCOc1cc(NC(=O)c2ccc(-c3ccc(Cl)cc3Cl)cc2)ccc1-c1ccccc1`, the IFI was 6.14%. With `O=C(Nc1ccc(N2CCN(Cc3cccc(F)c3)CC2)cc1)c1cccs1` the figure was -0%. With `O=C(COC(=O)c1cccc(S(=O)(=O)N2CCc3ccccc32)c1)NNC(=O)c1cccs1` the figure was 0.97%. With `FC(F)(F)c1ccc(CSc2ccc3nnc(-c4ccccn4)n3n2)cc1` the figure was 1.23%; with `FC(F)(F)c1ccc2[nH]c(-c3ccc(-c4cccc(CNCC5CCCO5)c4)s3)nc2c1` (configuration not stated), 7.92%. `COc1ccc2[nH]ccc(=NN=Cc3ccc(Cl)cc3)c2c1` gave an IFI of 0.74%. For `O=C(Cc1c[nH]cn1)Nc1cccc(-c2ccc(-c3nc4ccccc4[nH]3)cc2)c1`, the IFI came to 3.77%. With `CC(C)(c1ccccc1)c1ccc(O)c(CN2CCOCC2)c1` the figure was 4.03%; with `CCn1cc(-c2cc(C(=O)Nc3ccc(OC)cc3C)c3ccccc3n2)c(C)n1`, 0%.

The molecule `C[C@@H](C(=O)N1CCOCC1)N1CC[C@H](NS(=O)(=O)c2ccc3ccnc(N)c3c2)C1=O` returned an IFI of 0%.

In turn, `CN=C(NC)c1cccc(NC(=O)C=Cc2ccc(C=CC(=O)Nc3cccc(C(=NC)NC)c3)cc2)c1` came in with an IFI of 1.42%.

Take `CCN(CC)CCNc1ccnc2c3ccccc3n(C)c12`: the IFI amounted to 1.47%.

The molecule `O=C(NCC1CC1)C1CCN(C(c2ccccc2)c2ccc(Cl)c(Cl)c2)CC1` (configuration not stated) registered an IFI of 3.45%. The same measure for `CN1CCCc2cc(NC(=O)C=Cc3ccc(-c4ccc(F)cc4F)o3)ccc2C1`: 10.2%.

In turn, `Cc1cc2nc(N/C(N)=N/C(=O)NC3CCCCC3)nc(C)c2cc1C` returned an IFI of 9.38%. The same measure for `CC(C)CNC(=O)c1cncc(-c2cccc(CNC3Cc4ccccc4C3)c2)c1`: 7.58%; for `FC(F)(F)c1ccc(COc2cc(Cl)ccc2Cn2ccnc2)cc1`: 8.57%. With `O=C(N[C@H]1CCN(Cc2ccc(OCCCN3CCCCC3)cc2)C1)c1ccc(Oc2ccccc2)cc1` the figure was 7.53%; with `N=C(N)NN=CC(=O)Nc1ccc(C(F)(F)F)cc1`, -0%; with `O=C(Nc1ccc(-n2ccc(C(F)(F)F)n2)cc1)c1cccs1`, 1.39%. With `O=C(NCCc1ccc(F)cc1)c1ccc(N2CCN(c3ccncc3)CC2)nc1` the figure was -0%; with `CCn1c(-c2nonc2N)nc2c(-c3ccccc3)ncc(OCCCNCCCN3CCOCC3)c21`, 3.08%; with `Cc1ccc(NCC(=O)Nc2ccc(F)c(Cl)c2)cc1S(=O)(=O)N1CCOCC1`, 3.13%. `CC(C)n1ncc2c3c(N)nc(N)nc3ccc21`: the IFI stood at 2.22%. With `Cc1[nH]c(C)c(-c2ccc(CCc3cccc(C(F)(F)F)c3)nc2)c(=O)c1Cl` the figure was 8.18%; with `O=C(Nc1cccc(-c2nn3ccccc3c2-c2ccnc(Nc3cccc(F)c3)n2)c1)C1CCCCC1`, 2.17%; with `O=C(Nc1ccccc1)Nc1cccc(-c2nn3c(OCC4CCCCN4)cccc3c2-c2ccncc2)c1` (configuration not stated), 6.43%. With `COc1ccc(C(=O)CCC(=O)N(Cc2ccc(-c3ccc(CNCCc4ccc(S(C)(=O)=O)cc4)cn3)cc2)C2CC3CCC2C3)cc1F` (configuration not stated) the figure was 4.93%; with `COc1ccc2nccc([C@@H](O)CN3CCC(NCCNc4ccccn4)CC3)c2c1`, 0.75%; with `O=C(NCCCCCCNCc1ccc(-c2ccccc2)cc1)Nc1ccc(Cl)c(Cl)c1`, 5.84%.

In turn, `N#Cc1cccc(CN2CCCN(c3ccc(NC(=O)c4cccs4)cc3)CC2)c1` gave an IFI of 5.13%. The same measure for `O=C(Nc1cccc(CN2CCCN(Cc3ccc(O)cc3)CC2)c1)c1cc2ccccc2o1`: 0.67%; for `CC1(C)C(=O)N=C2C1=C(O)C(=O)c1ccccc12`: 17.2%; for `Cc1noc(-c2ccccc2)c1CN1CCCC2(CC(C(=O)NCc3cccc(F)c3F)=NO2)C1` (configuration not stated): 3.54%. `COc1ccccc1Nc1nc(C)cc(NCc2ccc(-c3c(C)noc3C)cc2)n1` showed an IFI of 1.54%. With `O=C(NCCCCN1CCC(c2ccc([N+](=O)[O-])cc2)CC1)c1ccc(NC(=O)c2ccc(Cl)cc2)cc1` the figure was 1.5%; with `CN1CCN(c2ccnc3cc4c(cc23)N(C(=O)Nc2ccc(-c3ccncc3)c3ccccc23)CC4)CC1`, 3.68%. With `O=C(Nc1cccc(-c2ccc(-c3nc4cc(C(F)(F)F)ccc4[nH]3)cc2)c1)Nc1ccc(Cl)c(Cl)c1` the figure was 5.05%. With `CS(=O)(=O)Cc1ccc(Nc2nccc(NC3CCN(c4nccc(C(F)(F)F)n4)CC3)n2)cc1` the figure was 3.76%; with `Cc1ccc(NC(=O)c2cnc(N3CCN(c4ccncc4)CC3)c(Cl)c2)cc1`, 11.9%. Consider `Cc1c(Cl)cccc1S(=O)(=O)Nc1ccc(CCN2CCC(N)CC2)cc1`, for which the IFI came out at 9.84%. For `Oc1ccc(CN2CCC(NCc3cccc4ccccc34)CC2)cc1`, the IFI was 3.33%. With `CCOc1ccc2nc(C)cc(N/N=C/c3ccccc3[N+](=O)[O-])c2c1` the figure was 8.51%; with `CCc1ccc(O)c(-c2cc(C(=O)Nc3ccc(OC)c(Cl)c3)[nH]n2)c1`, 1.64%.

Turning to `CC(=O)c1ccccc1OCCSc1nnc(Cc2cccs2)n1C1CCCCC1`, the IFI turned out to be 4.8%.

As to `O=C(Nc1ccccc1-c1ccccc1)C1CCCN1C(=O)Nc1ccc(Cl)cc1` (configuration not stated), the IFI was determined as 1.39%. As for `CN1CCN(CCCN(Cc2ccc(-c3ccc(CNCc4ccc5c(c4)OCO5)cc3)cc2)C(=O)CCC2CCCC2)CC1`, the IFI came to 6.8%. `COc1ccc2nccc(N3CCC(CCNCc4cc5c(cn4)OCCO5)CC3)c2c1` yielded an IFI of 3.6%. The same measure for `COc1ccccc1CNC(=O)CCn1c(=O)[nH]c2ccsc2c1=O`: -0%; for `CCOCc1cnc(C)nc1NCC(=O)c1c(C)[nH]c2cc(C)ccc12`: 1.53%; for `O=C(Cc1ccc([N+](=O)[O-])cc1)N1CCc2cc3nccc(N4CCN5CCC[C@@H]5C4)c3cc21`: 1.5%. The same measure for `CCOC(=O)c1nc(-c2cc(Cl)nc(Cl)c2)[nH]c1NC(=S)NCCCN1CCOCC1`: 3.91%; for `O=C(Nc1ccc(-c2nc3ccccc3[nH]2)cc1)c1ccc(S(=O)(=O)N2CCCCC2)cc1`: 0.71%. With `Cc1ccc(C(C(=O)Nc2ccc(N3CCNCC3)c(Cl)c2)c2ccccc2)cc1` (configuration not stated) the figure was 18.6%; with `CC1CC1C(=O)NC1CCN(CC2(c3ccccc3)CCCCC2)CC1` (configuration not stated), 6.38%.

Turning to `COc1cc(CNCCCNc2cc(=O)c3ccccc3[nH]2)c2c(c1)C(C)CN2C(=O)OC(C)(C)C` (configuration not stated), the IFI worked out at 4.93%. The same measure for `O=C(NCCCCCN1CCC(c2c[nH]c3ccccc23)C1)Nc1ccc(Cl)c(Cl)c1` (configuration not stated): 4.32%. As for `Cc1cc(N(C)C2CCN(CC3CCCCC3)C2)nc(Nc2ccc(Cl)cc2)n1` (configuration not stated), the IFI was determined as 6.58%. Regarding `COc1ccc2ncc(F)c(CCN3CCC(NCc4cc(C)c5c(c4)OCCO5)CC3)c2n1`, the IFI turned out to be 3.85%.

With `COc1ccc2ncc(F)c([C@@H](O)CN3CCC(NCc4cc(C#N)c5c(c4)CCO5)CC3)c2n1`, the IFI was 2.97%. The same measure for `O=C(C=Cc1ccc(Cl)c(Cl)c1)NCCCCCN1CCC(CCNC(=O)c2sc3ccccc3c2Cl)CC1`: 4.93%.

The values above are taken from ChEMBL document CHEMBL1157539, “Thousands of chemical starting points for antimalarial lead identification” (Nature, 2010).
